The values below come from the supplement of paper PMC11417369.

The other results are listed elsewhere or left out.

The test system of this test is PF3D7_0420300 AP2 domain 1 (GST-tagged). Description: gcPBM binding intensity (ln(normalized median fluorescence intensity)); higher = stronger DNA binding. Summed up:
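For binding intensity, the highest Masliner-normalised natural-log median intensity across replicate spots of either probe orientation was taken. Protein bound to the array was stained with Alexa488 anti-GST antibody and scanned at 488 nm. The protein, GST-tagged P. falciparum DNA-binding domains from E. coli at about 25 μg on average, had been applied for 1 h to an Agilent 4 × 180k array of primer-extended double-stranded 36-bp intergenic genomic probes and negative controls.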
Regarding “ACCGTGGGAGGACACACACACACACCCACATATATA [CACACA_site4339]”, the “gcPBM binding intensity (ln)” value worked out at 10.2.
In the case of “ATTTTTGTTATTACATGTACCCATAATTATTATTAA [XGTACX_site3558]” it was 9.53; in that of “AACAATTATTTGTCGACACACGTATATGTTATTTAG [CACACA_site5046]”, 9.56.
As to “ACAAAAAAATGAAAAGAAAAAGATATACCCCAATAT [CACACA_negctrl_site509]”, the “gcPBM binding intensity (ln)” value was 9.91.
Take “ATATCCATAATAAAAACATGCAACAGAAAAAAAAAA [TGCATGCA_site497]”: the “gcPBM binding intensity (ln)” value was found to be 9.62.
In the case of “AAGAGAAATATATATTGTACAATAATTTTATTTGGT [XGTACX_site7642]” it was 9.16.
Consider “TATATATTAATATTTACACACATGCGCACCCATAAA [CACACA_site2410]”, for which the “gcPBM binding intensity (ln)” value came to 9.64.
In the case of “TTACAAAAAGGTAATTTACACACTGCATATAGGAAT [CACACA_site8956]” it was 9.63; in that of “TCTTAATATGGTAATACACACTAATATACTTTTGTT [CACACA_site4969]”, 9.53; in that of “ACCCTTCAATTTAATTGTACAAGAAAAAAAAAAAAA [XGTACX_site2927]”, 8.83.
For “TGCTCAAACTTTACAAATGAACGAATATAAAAAAAG [CACACA_negctrl_site541]”, the “gcPBM binding intensity (ln)” value came to 9.03.
In the case of “AAATAATCATAAAATAAACACACATATATAAATATA [CACACA_site7981]” it was 9.64; in that of “ACATAATATACTATTGTGCACATATATATATATATA [GTGCAC_site9761]”, 9.33; in that of “GTTAATTTAATTATATGTACGAAAAAATACGTTATA [XGTACX_site1306]”, 9.05.
In the case of “TTTTTATTTTTTTATTTCTTATCAAATAAAATATAT [XGTACX_negctrl_site537]” it was 9.08.
“ATTAAAATGGAGTATTAATATGATATATATATATAT [GTGCAC_negctrl_site509]”: the “gcPBM binding intensity (ln)” value worked out at 9.25.
In the case of “AGGAACATTTACGCCCCACACACCTACCAACAAAAA [CACACA_site3827]” it was 9.64; in that of “TAAATACAGACATACACACATACACCCACATATATA [CACACA_site547]”, 9.95; in that of “TATATATATATTTTTGGTACAGATATTTTCTTCTCT [XGTACX_site4432]”, 9.26.
In the case of “AATATATATATATATTGTACACACATTTATGCATAT [XGTACX_site6856]” it was 9.62.
In the case of “TTACAACCATAAAATGCATGTAAATGACAAAAAAAA [TGCATGCA_site944]” it was 9.19; in that of “TAAAATTAAATGAAATCATTATTCATTTTTATTTTA [CACACA_negctrl_site1281]”, 8.8.
Turning to “ATTCTTTTTTTTTTCTTATATTCTAATCACCACCTT [XGTACX_negctrl_site179]”, the “gcPBM binding intensity (ln)” value is 9.17.
In the case of “CATATAAATAAACACACACACACATATATATATATA [CACACA_site5309]” it was 10.1; in that of “TTTGGTAAGCGTGTCGCATGTAGAACAAGTCTACAT [TGCATGCA_site577]”, 8.89.
Regarding “AATAGGTGCCTTTTTTCACACACATGTCAACTAAAT [CACACA_site8846]”, the “gcPBM binding intensity (ln)” value was found to be 9.7.
In the case of “ATGAAATTATTATATAAACACACATTTATTTTATTT [CACACA_site8597]” it was 9.24; in that of “AGAAAAAAAAAAAAAAAACACACGGTACATCCAAAG [CACACA_site124]”, 9.66; in that of “ATCAAATTATAATCATGTACAAATAAAAAAAAAAAA [XGTACX_site313]”, 9.2.
In the case of “AAATATCTACAAATATGTACATATTTTTTTTGGCTT [XGTACX_site6301]” it was 9.17.
In the case of “TATTTTGTCATAGAACGTACTTATAAATATTTTTTT [XGTACX_site8424]” it was 9.19.
With “ATAGAAGCTGTTGACGAAGAAAAAAAAAAAAAAAAA [CACACA_negctrl_site110]”, the “gcPBM binding intensity (ln)” value worked out at 8.56.
In the case of “ATCATATCCACCAAATGAATAATATAAAATAATATA [XGTACX_negctrl_site193]” it was 9.13; in that of “AAATAACATAATAAGGGTACATTAATTTCGATAATG [XGTACX_site835]”, 9.43; in that of “TATATATATATATATGCACACATTTATACAATTTTA [CACACA_site2986]”, 9.16.
For “AATATTTTGTTATTTATTTAATCTAATATTACTATC [CACACA_negctrl_site4]”, the “gcPBM binding intensity (ln)” value is 9.32.
In the case of “ATATATATATAAATATGTACATATATACATATATAC [XGTACX_site2374]” it was 9.16; in that of “AAAAAAAAAAAATACACACAAACACAAATTAAATAA [CACACA_site3809]”, 9.88; in that of “ATTATAGAATATTGAAGTACAAAATTTAAAATAAGT [XGTACX_site1468]”, 9.46.
Turning to “TAGGAAAATTACAAAAGTACTTGGCACATAATAATG [XGTACX_site6005]”, the “gcPBM binding intensity (ln)” value was found to be 9.36.
In the case of “TAGATATTTTTGAAAAGTACAAATTTTTAAAAATTA [XGTACX_site4420]” it was 8.79.
In the case of “GTATGATTACAAGAAAGTAGTCCACTTTAACAACAA [CACACA_negctrl_site1304]” it was 9.13; in that of “TTATATAATGACAAAAAAAAAAAAAAAAAAAAAAAA [CACACA_negctrl_site1467]”, 8.39.
For “TAATTTATCCTATAATGTACTTATAAAATATATCAT [XGTACX_site1460]”, the “gcPBM binding intensity (ln)” value came out at 9.02.
Turning to “ATGTACATAAACCGCACACATATAAAAAAATAAATA [CACACA_site5571]”, the “gcPBM binding intensity (ln)” value amounted to 9.45.
In the case of “ATTCAGAGTATATAAAAATTAATATATACATAATAT [CACACA_negctrl_site1782]” it was 9.18; in that of “AGTCCATTTTATTATTGTACATATTAATTTATATCA [XGTACX_site672]”, 9.61.
In the case of “TAAAAATATTATAATGCATGCAAAATATTGTTATAA [TGCATGCA_site244]” it was 8.99.
In the case of “ATAGTTTTTCCAATTCAAAAAAAAAAAAAAAAAAAA [CACACA_negctrl_site969]” it was 8.47; in that of “AAAGTATAAATAAATACACACATATTTATTTATATA [CACACA_site7375]”, 9.5; in that of “AACATATGATTAAACTGTACAAGAAAAATATAACAT [XGTACX_site4477]”, 9.61.
Take “GAGAGGATCATCAATTCACACACATAAAAATGAAGT [CACACA_site9010]”: the “gcPBM binding intensity (ln)” value worked out at 9.58.
Take “TGTTATGAGAACAGCACACAAGCTACATCATATATA [CACACA_site870]”: the “gcPBM binding intensity (ln)” value came out at 9.22.
In the case of “TATATATAAGATTGATGTACGATTTTGGTGTCTTAT [XGTACX_site2611]” it was 9.36; in that of “TATTATAGTATATATTGTACATATATATATTTTTTA [XGTACX_site8831]”, 9.19; in that of “ATAATAATATATAGTACACACAAAAATGGAAGTAAA [CACACA_site3318]”, 9.78.
Consider “TTTCTTTTTAAATAATAATGTATAATAAAAAGTTCA [TGCATGCA_negctrl_site195]”, for which the “gcPBM binding intensity (ln)” value is 8.81.
For the sequence “TTTGTTTGATATATGTGTACATATATATATTATGCT [XGTACX_site3522]”, the “gcPBM binding intensity (ln)” value worked out at 9.41.
In the case of “TATAATATGTATATCTGTACATATTTTAAATCTAAT [XGTACX_site2426]” it was 9.05; in that of AAGTACAATTCATGTATGCACTTTATTATATTTTAT, 9.36; in that of “AAGATAAAATAATAAAGTACACATATAAATTGAAAA [XGTACX_site2113]”, 9.42.
In the case of “GTAATACCCAAACACACACACATACCCATATATATA [CACACA_site5510]” it was 10; in that of “AGAAAGTAAAGCTGTTGTACTATTATATATATTTTA [XGTACX_site8090]”, 9.28.
With “TAATGTAATACATATTGTACACATACATATATATTT [XGTACX_site7531]”, the “gcPBM binding intensity (ln)” value is 9.28.
As for “ATATATAATCATCACACATGCAGCCCTGATGAAAAA [TGCATGCA_site687]”, the “gcPBM binding intensity (ln)” value is 9.25.
Take “GGGTATACCAATATAACACACATATATCTATAATAT [CACACA_site6348]”: the “gcPBM binding intensity (ln)” value came to 9.62.
In the case of “TATAAATTTTTATTTACATGCAGTTATTATTTCCAT [TGCATGCA_site41]” it was 9.24; in that of “AATAATAAATAAAAATGTACACATACATTTCTATCC [XGTACX_site7057]”, 9.29; in that of “TATTAAAAGGTTAAAGCATGCATACATATATATGTT [TGCATGCA_site865]”, 9.24.
In the case of TTTTTGTTACCTATTGTGCACTTCATATAAATTAAA it was 9.35.
In the case of “ATATATATATATATATGTACATATTTATATTGTAAA [XGTACX_site8878]” it was 9; in that of “TAATTTTTTAAATTTAAACACACATTTTGTATATGT [CACACA_site8479]”, 9.28; in that of “TATATATATATATATTGTACGAACCTTTTTTTTTTT [XGTACX_site4169]”, 9.25.
As to “TGATACGTATTTATTTCACACACGTTAAAAAAATAA [CACACA_site3914]”, the “gcPBM binding intensity (ln)” value turned out to be 9.08.
On to “CTAACACTAATTTTTTGTACACAATATGTAAATAAA [XGTACX_site6424]”, for which the “gcPBM binding intensity (ln)” value worked out at 9.1.
In the case of “ATTTTTACATAGGAAGCATGCATATTTTAAAAATAA [TGCATGCA_site1046]”, the “gcPBM binding intensity (ln)” value is 9.01.
In the case of “TTATTTCTGAATATTTTTTTTTTTTCTTCTTTTTTA [CACACA_negctrl_site815]” it was 9.04; in that of “CATGTGTTCTATATTTATGTCTAACTTTTTAATTAA [CACACA_negctrl_site904]”, 9.43; in that of “TAAATGTCTGTTAATGCACACGATATGTCTATATAT [CACACA_site2352]”, 9.43.
With “CTTTCTATATAAAATCGTACATATATAATATTATAT [XGTACX_site5807]”, the “gcPBM binding intensity (ln)” value is 9.08.
In the case of “TATATTAAGAAACACACACACATATATATATATATA [CACACA_site1609]” it was 9.63; in that of “TTCCTATTTCCTATGTGTACTTATAAATAAGTGTCT [XGTACX_site3725]”, 9.38.
In the case of “GAAATTATAAATTGGACACACACATAAAAAATATGT [CACACA_site7957]” it was 9.78; in that of “TCCGCATGTACATGGGTGCACATAACACCCATTTAA [GTGCAC_site9881]”, 9.11.
For “GTAATTTTATATGGTTGTACATATATATATATATAT [XGTACX_site6659]”, the “gcPBM binding intensity (ln)” value was found to be 9.32.
Take TTATACCTGATTTAGGTGCTATAAATTTGTGTTTTT: the “gcPBM binding intensity (ln)” value is 9.31.
With “ATATATATATATATGTGTACTTATATATTTAAAAAA [XGTACX_site1761]”, the “gcPBM binding intensity (ln)” value came to 9.07.
On to “ATATATATATATATATATATTTATATGTGAAAACCC [CACACA_negctrl_site845]”, for which the “gcPBM binding intensity (ln)” value worked out at 9.28.
